Measured values taken from patent US20230167169A1.

B1: AB-007088 (antibody)
light: GVQMTQSPSTLSASVGDRVTLTCRASQSISSWLAWYQQKPGKAPKLLIYDASSLESGVPSRFSGSGSGTEFTLTISSLQPDDFATYYCQQYNSYSFWTFGQGTKVEIKRTVAAPSVFIFPPSDEQLKSGTASVVCLLNNFYPREAKVQWKVDNALQSGNSQESVTEQDSKDSTYSLSSTLTLSKADYEKHKVYACEVTHQGLSSPVTKSFNRGEC
heavy: QVQLVESGGGVVQPGRSLRLSCAASGFAFNTYGMHWVRQTPGKGLEWVAIIWYDGSQKYYADSVQGRFIISRDNHKNTLSLQMNGLRAEDTAVYFCVRVRFSVGPHGSAFDLWGQGTMVIVSS[… human IgG1 constant region …]
B2: AB-000224 (antibody)
light: ESVLTQPPSVSGAPGQRVTISCTGMNSNIGAGYDVYWYQQLPGRAPKLLIYGNSNRPSGVPDRFSGSRSGTSASLAITGLQAEDEADYYCQSYDTSLNGWAFGGGTKLTVLGQPKAAPSVTLFPPSSEELQANKATLVCLVSDFYPGAVTVAWKADGSPVKVGVETTKPSKQSNNKYAASSYLSLTPEQWKSHRSYSCRVTHEGSTVEKTVAPAECS
heavy: EVQLVESGGGLVQPGRSLRLPCTASGFSFGDHAMSWVRQAPGKGLEWVGFIRKTTYGATTHYAAAVRGRFTISRDDSKSIVYLQMNSLKTEDTAVYFCTRVQLDYGPGYQYYGMDVWGQGTTVTVSS[… human IgG1 constant region …]

Key:
[1] = target: … (Plasmodium falciparum); experiment: BLI; biotinylated target on streptavidin sensor; antibody at 5 µg/mL; BLI: target immobilized, antibody flowed over it (multivalent binding possible)
[2] = target: N-Interface (Plasmodium falciparum); experiment: as above

Binder | Kd [1] | Kd [2] | koff [2] | kon [2]
B1 | < 0.00933 nM | – | – | –
B2 | – | 4.57 nM | 0.012 s⁻¹ | 2.63e+06 M⁻¹ s⁻¹
